Reference: publication PMC6662825
Numbering of substitutions follows the chain as printed. Numbers in names are those of the source. These are yes or no findings as the source states them, for the method shown. For part of these data: Binding seen in cells or lysates may run through a third protein. Some entries that bind do so weakly or less than the wild type. Where a sequence is shown, tags or fusion partners need not be part of it.

T1: MTR4-LAP (human) (UniProt P42285)
T1 sequence: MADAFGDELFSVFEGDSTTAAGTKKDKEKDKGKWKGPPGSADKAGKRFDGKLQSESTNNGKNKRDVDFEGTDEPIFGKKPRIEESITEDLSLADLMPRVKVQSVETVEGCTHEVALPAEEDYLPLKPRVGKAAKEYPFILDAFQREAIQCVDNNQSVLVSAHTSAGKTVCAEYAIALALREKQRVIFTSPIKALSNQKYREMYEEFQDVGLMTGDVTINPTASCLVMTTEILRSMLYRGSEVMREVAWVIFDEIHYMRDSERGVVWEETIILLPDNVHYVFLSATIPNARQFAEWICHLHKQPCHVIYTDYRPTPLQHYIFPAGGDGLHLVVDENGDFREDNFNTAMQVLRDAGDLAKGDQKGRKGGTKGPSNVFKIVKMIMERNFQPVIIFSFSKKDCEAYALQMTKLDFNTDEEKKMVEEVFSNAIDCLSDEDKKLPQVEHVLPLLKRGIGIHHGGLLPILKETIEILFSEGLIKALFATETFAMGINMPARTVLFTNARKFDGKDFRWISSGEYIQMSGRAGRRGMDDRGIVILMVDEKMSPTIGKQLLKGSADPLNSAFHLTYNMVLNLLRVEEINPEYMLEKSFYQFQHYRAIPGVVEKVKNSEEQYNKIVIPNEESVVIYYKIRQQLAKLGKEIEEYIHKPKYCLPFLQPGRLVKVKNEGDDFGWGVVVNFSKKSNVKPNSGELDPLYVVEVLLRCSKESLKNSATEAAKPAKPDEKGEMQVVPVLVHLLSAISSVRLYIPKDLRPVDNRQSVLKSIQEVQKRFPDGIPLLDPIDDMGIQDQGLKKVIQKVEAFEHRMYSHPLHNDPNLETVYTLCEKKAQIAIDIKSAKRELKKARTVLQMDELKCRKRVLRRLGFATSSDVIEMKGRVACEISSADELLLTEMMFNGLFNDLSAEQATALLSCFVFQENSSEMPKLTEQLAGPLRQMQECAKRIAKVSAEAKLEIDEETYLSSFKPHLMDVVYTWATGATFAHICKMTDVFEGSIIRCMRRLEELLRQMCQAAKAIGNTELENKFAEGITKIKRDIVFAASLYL

T2: GST-MTR4-∆N∆arch (human) (UniProt P42285)
T2 sequence: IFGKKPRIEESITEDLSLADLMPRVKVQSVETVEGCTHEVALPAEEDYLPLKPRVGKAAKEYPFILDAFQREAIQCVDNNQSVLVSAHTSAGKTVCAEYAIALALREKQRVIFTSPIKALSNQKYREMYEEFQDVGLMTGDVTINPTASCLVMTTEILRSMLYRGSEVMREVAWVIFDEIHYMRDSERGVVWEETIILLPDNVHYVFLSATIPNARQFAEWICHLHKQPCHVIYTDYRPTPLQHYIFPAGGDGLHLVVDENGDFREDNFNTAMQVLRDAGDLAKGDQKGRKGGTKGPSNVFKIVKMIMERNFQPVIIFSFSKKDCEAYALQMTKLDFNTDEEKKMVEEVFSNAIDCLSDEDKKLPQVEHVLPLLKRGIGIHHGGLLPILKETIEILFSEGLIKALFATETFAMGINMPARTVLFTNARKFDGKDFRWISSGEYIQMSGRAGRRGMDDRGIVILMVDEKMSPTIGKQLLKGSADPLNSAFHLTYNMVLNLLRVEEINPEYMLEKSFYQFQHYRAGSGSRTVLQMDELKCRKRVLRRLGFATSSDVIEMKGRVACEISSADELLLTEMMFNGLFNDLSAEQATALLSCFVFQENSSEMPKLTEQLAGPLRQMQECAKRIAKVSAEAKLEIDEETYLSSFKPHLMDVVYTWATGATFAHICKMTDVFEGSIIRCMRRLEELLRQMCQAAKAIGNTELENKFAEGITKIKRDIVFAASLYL

B1: FLAG-tagged full-length NVL, wild type (protein, UniProt O15381 1-856)
chain: MKPRPAGFVDNKLKQRVIQYLTSNKCGKYVDIGVLASDLQRVYSIDYGRRKRNAFRIQVEKVFSIISSEKELKNLTELEDEHLAKRARQGEEDNEYTESYSDDDSSMEDYPDPQSANHMNSSLLSLYRKGNPDSVSNTPEMEQRETTSSTPRISSKTGSIPLKTPAKDSEGGWFIDKTPSVKKDSFFLDLSCEKSNPKKPITEIQDSKDSSLLESDMKRKGKLKNKGSKRKKEDLQEVDGEIEAVLQKKAKARGLEFQISNVKFEDVGGNDMTLKEVCKMLIHMRHPEVYHHLGVVPPRGVLLHGPPGCGKTLLAHAIAGELDLPILKVAAPEIVSGVSGESEQKLRELFEQAVSNAPCIIFIDEIDAITPKREVASKDMERRIVAQLLTCMDDLNNVAATARVLVIGATNRPDSLDPALRRAGRFDREICLGIPDEASRERILQTLCRKLRLPQAFDFCHLAHLTPGFVGADLMALCREAAMCAVNRVLMKLQEQQKKNPEMEDLPSKGVQEERLGTEPTSETQDELQRLLGLLRDQDPLSEEQMQGLCIELNDFIVALSSVQPSAKREGFVTVPNVTWADIGALEDIREELTMAILAPVRNPDQFKALGLVTPAGVLLAGPPGCGKTLLAKAVANESGLNFISVKGPELLNMYVGESERAVRQVFQRAKNSAPCVIFFDEVDALCPRRSDRETGASVRVVNQLLTEMDGLEARQQVFIMAATNRPDIIDPAILRPGRLDKTLFVGLPPPADRLAILKTITKNGTKPPLDADVNLEAIAGDLRCDCYTGADLSALVREASICALRQEMARQKSGNEKGELKVSHKHFEEAFKKVRSSISKKDQIMYERLQESLSR
B2: FLAG-tagged full-length ZCCHC8, wild type (protein, UniProt Q6NZY4 1-707)
chain: MAAEVYFGDLELFEPFDHPEESIPKPVHTRFKDDDGDEEDENGVGDAELRERLRQCEETIEQLRAENQELKRKLNILTRPSGILVNDTKLDGPILQILFMNNAISKQYHQEIEEFVSNLVKRFEEQQKNDVEKTSFNLLPQPSSIVLEEDHKVEESCAIKNNKEAFSVVGSVLYFTNFCLDKLGQPLLNENPQLSEGWEIPKYHQVFSHIVSLEGQEIQVKAKRPKPHCFNCGSEEHQMKDCPMPRNAARISEKRKEYMDACGEANNQNFQQRYHAEEVEERFGRFKPGVISEELQDALGVTDKSLPPFIYRMRQLGYPPGWLKEAELENSGLALYDGKDGTDGETEVGEIQQNKSVTYDLSKLVNYPGFNISTPRGIPDEWRIFGSIPMQACQQKDVFANYLTSNFQAPGVKSGNKRSSSHSSPGSPKKQKNESNSAGSPADMELDSDMEVPHGSQSSESFQFQPPLPPDTPPLPRGTPPPVFTPPLPKGTPPLTPSDSPQTRTASGAVDEDALTLEELEEQQRRIWAALEQAESVNSDSDVPVDTPLTGNSVASSPCPNELDLPVPEGKTSEKQTLDEPEVPEIFTKKSEAGHASSPDSEVTSLCQKEKAELAPVNTEGALLDNGSVVPNCDISNGGSQKLFPADTSPSTATKIHSPIPDMSKFATGITPFEFENMAESTGMYLRIRSLLKNSPRNQQKNKKASE
B3: FLAG-tagged full-length ZCCHC8 I112R/F115R (protein, UniProt Q6NZY4 1-707)
chain: B2 chain with I112R, F115R
B4: Trx-NVL^1–266 (domain or fragment, UniProt O15381 1-266)
chain: MKPRPAGFVDNKLKQRVIQYLTSNKCGKYVDIGVLASDLQRVYSIDYGRRKRNAFRIQVEKVFSIISSEKELKNLTELEDEHLAKRARQGEEDNEYTESYSDDDSSMEDYPDPQSANHMNSSLLSLYRKGNPDSVSNTPEMEQRETTSSTPRISSKTGSIPLKTPAKDSEGGWFIDKTPSVKKDSFFLDLSCEKSNPKKPITEIQDSKDSSLLESDMKRKGKLKNKGSKRKKEDLQEVDGEIEAVLQKKAKARGLEFQISNVKFED
B5: MBP-ZCCHC8^91–211 (domain or fragment, UniProt Q6NZY4 91-211)
chain: DGPILQILFMNNAISKQYHQEIEEFVSNLVKRFEEQQKNDVEKTSFNLLPQPSSIVLEEDHKVEESCAIKNNKEAFSVVGSVLYFTNFCLDKLGQPLLNENPQLSEGWEIPKYHQVFSHIV

Columns and labels:
MTR4-LAP (human) = target: T1, MTR4-LAP (human); assay: co-IP; HeLa Kyoto cells stably expressing MTR4-LAP or RBM7-LAP, transiently transfected with FLAG-tagged NVL or ZCCHC8 constructs; lysate on beads with a llama anti-GFP antibody; 150 mM NaCl, 20 mM HEPES pH 7.4, 0.5% Triton X-100; Benzonase treatment on beads; western blot
GST-MTR4-∆N∆arch (human) [1] = target: T2, GST-MTR4-∆N∆arch (human); assay: condition: 20 μM Trx-NVL constructs (methods, told for 10 μM GST-MTR4∆N); pull-down; GST-tagged MTR4 constructs as bait, Trx-NVL constructs as prey, glutathione sepharose; 10 μM GST-MTR4∆N with 20 μM Trx-NVL constructs; 50 mM Hepes pH 7.5, 150 mM NaCl, 5% glycerol, 0.05% NP40, 1 mM DTT, 30 min at 4 °C; SDS-PAGE, Coomassie; both purified
GST-MTR4-∆N∆arch (human) [2] = target: T2, GST-MTR4-∆N∆arch (human); assay: condition: 8 μM MBP-ZCCHC8 constructs (methods, told for 2 μM GST-MTR4∆N); pull-down; GST-tagged MTR4 constructs as bait, MBP-ZCCHC8 constructs as prey, glutathione sepharose; 2 μM GST-MTR4∆N with 8 μM MBP-ZCCHC8 constructs; 50 mM Hepes pH 7.5, 150 mM NaCl, 5% glycerol, 0.05% NP40, 1 mM DTT, 30 min at 4 °C; SDS-PAGE, Coomassie; both purified

| Binder | binding (MTR4-LAP (human)) | binding (GST-MTR4-∆N∆arch (human) [1]) | other results |
| --- | --- | --- | --- |
| B1 | binds | – | – |
| B2 | binds | – | – |
| B3 | binds | – | – |
| B4 | – | no binding | – |
| KDSEGGWFIDKTPSVKKDSFFLDLSCEKSNPKKPITEIQDSKDSSLLESD (domain or fragment, UniProt O15381 167-216) [Trx-NVL^167–216] | – | no binding | – |
| B5 | – | – | binding (GST-MTR4-∆N∆arch (human) [2]): no binding |
